# Measurements from PubChem BioAssay AID493170 (National Center for Advancing Translational Sciences (NCATS), 2011).
# Inconclusive means that the source gave no clear call. Such entries were picked first, then a sample of the others. Potencies of inconclusive entries are left out as doubtful fits. Activity calls are given as the source filed them. The call rests on the fitted dose curve; in most records, active means well fitted inhibition curve with a large enough effect; inconclusive means small, poorly fitted or top-dose-only effect, or effect the other way; inactive means flat fitted curve, though single readings scatter.
# Target: Ubiquitin carboxyl-terminal hydrolase 2 (Homo sapiens) (UniProt O75604)
# Sequence of UniProt O75604 (O75604 whole entry, looked up): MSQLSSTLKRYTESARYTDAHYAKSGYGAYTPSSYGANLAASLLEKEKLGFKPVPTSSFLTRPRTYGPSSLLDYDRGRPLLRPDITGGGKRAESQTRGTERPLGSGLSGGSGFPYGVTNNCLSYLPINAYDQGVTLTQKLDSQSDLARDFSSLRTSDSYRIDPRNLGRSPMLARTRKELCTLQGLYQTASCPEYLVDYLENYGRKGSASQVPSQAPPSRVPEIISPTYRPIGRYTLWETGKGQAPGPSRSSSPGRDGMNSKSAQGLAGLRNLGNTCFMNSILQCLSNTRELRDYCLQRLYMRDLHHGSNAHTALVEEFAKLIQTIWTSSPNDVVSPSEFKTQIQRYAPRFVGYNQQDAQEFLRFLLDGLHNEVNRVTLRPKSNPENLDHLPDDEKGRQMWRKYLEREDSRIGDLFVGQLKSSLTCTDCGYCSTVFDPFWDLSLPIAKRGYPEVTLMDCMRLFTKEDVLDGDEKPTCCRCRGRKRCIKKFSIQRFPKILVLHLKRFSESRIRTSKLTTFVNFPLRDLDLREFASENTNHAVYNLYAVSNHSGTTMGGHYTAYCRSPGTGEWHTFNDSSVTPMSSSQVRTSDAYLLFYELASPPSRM
# Experiment: Ub-rhodamine 110 based assay for inhibitors Ubiquitin-specific Protease USP2a; further: nearly all actives have a fitted effect of over 50% in size
# Conditions: USP2a Ub-rhodamine110 cleavage, fluorescence; series mostly up to 38.3 µM
# Method in brief: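 Kinetic fluorescence (485/531 nm) read each minute over 7 min after adding Ub-Rhod110 (150 nM final) to USP2a (5 nM final). The enzyme had 30 min RT exposure to compounds beforehand in Tris pH 8.0 buffer with CaCl2, CHAPS and beta-ME.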
# Potency means the concentration at half of the fitted maximal effect; tags describe the fitted curve by direction and shape.
row,Structure (SMILES),Potency
1,NC1=NC(=O)/C(=C/c2cccc(-c3ccc(S(N)(=O)=O)cc3)c2)S1,"inconclusive [inhibitor, partial curve, poor fit]"
2,Cc1ccc(C)c(OCC(=O)Nc2cc(NC(=O)COc3cc(C)ccc3C)cc(C(=O)O)c2)c1,active: 11.2 µM
3,CCOc1ccc(Cn2c(=O)sc3ccccc32)cc1OC,"inconclusive [activator, full curve, poor fit]"
4,CCOc1ccc(CCn2c(-c3ccco3)nc3ccccc3c2=O)cc1OCC,inactive
5,Fc1ccc(-c2nnn(Cc3nc4ccccc4s3)n2)cc1,inactive
6,CC1(C)Cc2c(C#N)c(N3CCN(C(=O)c4ccco4)CC3)nc(-c3ccco3)c2CS1,active: 8.91 µM
7,COc1cc(C(=O)OC2CCCCC2=O)cc(OC)c1C (centres undefined),active: 11.2 µM
8,COc1cc(/C=N/NC(=O)c2cc(-c3ccccc3)nc3ccccc23)ccc1O,"inconclusive [inhibitor, partial curve, poor fit]"
9,Cc1cc(C)cc(C(=O)Nc2ccc(N3CCCC3)cc2)c1,"inconclusive [inhibitor, partial curve, poor fit]"
10,COC(=O)C1CCN(C(=O)COC(=O)CC(NC(N)=O)c2ccc(Cl)cc2)CC1 (centres undefined),inactive
11,O=C(Nc1cccc(C(F)(F)F)c1)/C(=C\c1ccco1)NC(=O)c1cccs1,inactive
12,O=c1cc2oc3cc(O)c(O)cc3c(-c3ccccc3[N+](=O)[O-])c-2cc1O,"inconclusive [inhibitor, full curve, poor fit]"
13,O=C(CN1CCOCC1)Nc1ccc(C2CCCCC2)cc1,inactive
14,CC(C)c1ccc(Nc2nnc(SCC(=O)c3nnc(-c4ccccc4)o3)s2)cc1,active: 2.82 µM
15,O=C(OCC(=O)N1N=C(c2ccc(Cl)cc2)CC1c1ccco1)c1cccnc1 (centres undefined),"inconclusive [inhibitor, partial curve, poor fit]"
16,O=C(OCc1ccccc1)C1CCCN1C(=O)c1cccs1 (centres undefined),inactive
17,O=C(NNC(=O)c1cc2ccccc2cc1O)Nc1ccccc1F,"inconclusive [inhibitor, single point]"

row,Structure (SMILES),Potency
1,O=C(O)C(Cc1ccccc1)N1C(=O)/C(=C/C=C/c2ccco2)SC1=S (centres undefined),active: 11.2 µM
2,Clc1ccc2c(N/N=C/c3ccc(Br)cc3)ccnc2c1,"inconclusive [inhibitor, partial curve, poor fit]"
3,CCOc1ccc2[nH]c(=O)c(CN(Cc3nnnn3Cc3ccco3)C3CCCCC3)cc2c1,"inconclusive [inhibitor, partial curve, poor fit]"
4,O=C(C[n+]1ccc(-c2cc(C(=O)Nc3cccc(C(F)(F)F)c3)c3ccccc3n2)cc1)c1cccc([N+](=O)[O-])c1,"inconclusive [inhibitor, partial curve]"
5,C=CCn1c(NCc2cc(C)ccc2O)nc2ccccc21,inactive
6,CCCCCCCCCC[N+](C)(C)CC/C=C1/c2ccccc2Sc2ccc(Cl)cc21,"inconclusive [inhibitor, single point]"
7,O=C(CSc1nnc(SCc2ccccc2)s1)N/N=C/c1c[nH]c2ccccc12,active: 10 µM
8,CC1CCCCN1CCNC(=O)CC1Oc2ccccc2NC1=O (centres undefined),inactive
9,COc1ccc(-c2cc(C(F)(F)F)nc(S(C)(=O)=O)n2)cc1,inactive
10,CC(/C=N/NC(=O)c1cc(-c2cccs2)[nH]n1)=C\c1ccccc1,"inconclusive [inhibitor, partial curve, poor fit]"
11,COc1ccc(/C=C2/SC(=S)N(c3ccc(S(=O)(=O)Nc4nccs4)cc3)C2=O)cc1,active: 3.16 µM
12,COc1cccc(-n2c(SCc3cc(=O)oc4cc(O)c(O)cc34)nc3ccccc3c2=O)c1,active: 1.58 µM
13,Cc1ccc(NC(=O)c2cc(-c3ccco3)nc3ccccc23)cc1S(=O)(=O)N1CCOCC1,"inconclusive [inhibitor, partial curve, poor fit]"
14,O=C(O)c1cc(N2N=C(C(F)(F)F)/C(=C/C=C/c3ccco3)C2=O)ccc1Cl,active: 7.08 µM
15,CN(C)c1ccc(NC(=O)CSCc2nc3c(nnn3Cc3ccc(F)cc3)c(=O)[nH]2)cc1,"inconclusive [inhibitor, single point]"
16,Cc1ccc(NC(=O)CSc2nc(O)cc(=O)n2-c2ccc(C)cc2)cc1,"inconclusive [inhibitor, single point]"
17,CCC(=O)Nc1c2c(nn1-c1ccc(F)cc1)CS(=O)C2 (centres undefined),"inconclusive [activator, full curve, poor fit]"
